Experimental data from PubChem BioAssay AID504339 (National Center for Advancing Translational Sciences (NCATS), 2011).
The whole screen tested about 390,000 compounds, of which about 17,000 (4.4%) were called active. The shares of active, inactive and inconclusive entries below differ from those in the screen. Calls come from the whole dose curve; as a rule, active = well fitted inhibition curve with a large enough effect; inconclusive = small, poorly fitted or top-dose-only effect; inactive = no such curve, though single readings can be large or run the other way. Where the call is inconclusive, the potency comes from a doubtful curve fit.

The compounds below were run against Lysine-specific demethylase 4A (Homo sapiens) (UniProt O75164) (assay: qHTS Assay for Inhibitors of JMJD2A-Tudor Domain). Conditions: AlphaScreen JMJD2A-Tudor / H3K4me3 peptide binding; series mostly up to 114 µM.
Note: nearly all actives have a fitted effect of over 50% in size.
Potency is the fitted concentration of half-maximal effect; tags give direction and shape of the fitted curve.

Sequence of UniProt O75164 (O75164 whole entry, looked up, the tested form may be a part): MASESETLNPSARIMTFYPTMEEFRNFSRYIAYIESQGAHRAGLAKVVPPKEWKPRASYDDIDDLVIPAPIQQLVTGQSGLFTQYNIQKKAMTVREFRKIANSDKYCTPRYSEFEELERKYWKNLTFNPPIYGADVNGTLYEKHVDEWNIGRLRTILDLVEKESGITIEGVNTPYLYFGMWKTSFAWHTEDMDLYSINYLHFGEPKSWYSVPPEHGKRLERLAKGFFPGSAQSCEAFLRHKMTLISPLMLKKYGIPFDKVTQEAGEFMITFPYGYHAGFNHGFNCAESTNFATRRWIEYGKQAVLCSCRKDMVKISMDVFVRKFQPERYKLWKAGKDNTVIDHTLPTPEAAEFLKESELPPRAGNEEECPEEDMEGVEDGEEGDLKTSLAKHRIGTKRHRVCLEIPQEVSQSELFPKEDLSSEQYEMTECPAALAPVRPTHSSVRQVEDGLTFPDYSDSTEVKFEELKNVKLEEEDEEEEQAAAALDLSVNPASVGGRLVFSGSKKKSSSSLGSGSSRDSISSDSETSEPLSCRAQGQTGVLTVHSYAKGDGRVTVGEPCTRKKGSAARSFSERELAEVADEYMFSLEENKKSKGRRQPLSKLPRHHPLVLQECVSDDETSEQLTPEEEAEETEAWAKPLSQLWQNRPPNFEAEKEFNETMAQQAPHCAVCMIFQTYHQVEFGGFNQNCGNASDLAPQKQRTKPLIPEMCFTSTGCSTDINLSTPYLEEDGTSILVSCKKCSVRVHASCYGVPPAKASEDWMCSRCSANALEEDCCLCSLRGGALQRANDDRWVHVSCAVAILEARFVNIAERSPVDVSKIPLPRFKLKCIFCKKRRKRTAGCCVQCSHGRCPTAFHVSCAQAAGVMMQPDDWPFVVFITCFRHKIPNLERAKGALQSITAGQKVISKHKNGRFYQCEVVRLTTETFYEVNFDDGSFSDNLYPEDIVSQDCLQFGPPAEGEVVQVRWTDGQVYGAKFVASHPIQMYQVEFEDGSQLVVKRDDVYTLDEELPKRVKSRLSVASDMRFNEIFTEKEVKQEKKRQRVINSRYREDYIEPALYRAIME

Structure (SMILES) | Potency
COc1ccc(OC)c(Nc2cc3ccccc3c(=O)[nH]2)c1 | inconclusive: 63.1 µM [inhibitor, partial curve]
Cc1sc2nc(SCC(=O)NCc3ccco3)n(C)c(=O)c2c1C | inactive
COc1ccc(C(CNC(=O)Cn2[nH]c(=O)c3ccccc3c2=O)N2CCCC2)cc1 (stereo not drawn) | inconclusive: 39.8 µM [inhibitor, single point]
O=C(COc1ccc(F)cc1)Nc1ccc(Cl)c(-c2nc3ccccc3[nH]2)c1 | inactive
COc1ccc(S(=O)(=O)NNC(=O)C(=O)NNc2ccccn2)cc1 | inactive
Nc1ncnc2oc(-c3ccoc3)c(-c3ccco3)c12 | active: 50.1 µM
COc1cccc(C2C3=C(N=c4s/c(=C\c5cccc(O)c5)c(=O)n42)c2ccccc2CC3)c1OC (stereo not drawn) | inconclusive: 63.1 µM [inhibitor, partial curve]
Cc1nn(-c2ccccc2)c2sc(C(=O)Nc3cccc(Br)c3)cc12 | inactive
CCCCNc1c(-c2ccc(SC(C)CC)c(OC)c2)nc2ccc(C)cn12 (stereo not drawn) | inconclusive: 39.8 µM [inhibitor, single point]
CC(CCc1ccccc1)N1CCN(Cc2ccccc2)CC1 (stereo not drawn) | active: 2.24 µM
Cc1ccc(S(=O)(=O)Nc2ccc(N3CCCCC3)cc2)cc1 | inconclusive: 50.1 µM [inhibitor, partial curve]
COc1ccc(CN2CCN(c3ncnc4scc(-c5ccc(F)cc5)c34)CC2)cc1 | inconclusive: 44.7 µM [inhibitor, full curve]
CC(C)N(Cc1ccccc1)C(=O)COC(=O)c1c(F)cccc1F | inactive
COc1ccc(N2CCN(C(=O)c3cccc(S(=O)(=O)N4CCc5ccccc54)c3)CC2)cc1 | active: 39.8 µM
COc1cc(OC)c(CN2CCCN(C)CC2)cc1Br | active: 1.41 µM
CCCCC1=CC2=C(c3ccco3)C(=O)C(C)(OC(=O)c3ccc(OC)cc3)C(=O)C2=CN1C1CC1 (stereo not drawn) | inconclusive: 39.8 µM [inhibitor, partial curve]
O=C1CCCC2=C1C1(CCCOC1)N=C(Nc1nc3ccccc3o1)N2 (stereo not drawn) | inconclusive: 63.1 µM [inhibitor, partial curve, poor fit]
CC(=O)c1cccc(NC(=O)CSc2ccc(-c3ccco3)nn2)c1 | inconclusive: 50.1 µM [inhibitor, partial curve]
COc1ccc(N2CCN(CCCNC(=S)Nc3c(C)cccc3C)CC2)cc1 | inconclusive: 44.7 µM [inhibitor, partial curve]
O=C(c1ccc(COc2ccccc2Br)o1)N1CCN(c2ccccn2)CC1 | inconclusive: 22.4 µM [inhibitor, full curve]
Cc1nc(SCCO)c([N+](=O)[O-])[nH]1 | inactive
CSc1ccccc1NC(=O)CN(C)C(=O)COc1ncnc2ccccc12 | inactive
COc1cccc2cc(-c3cc(=O)oc4cc(C)c(OCC(C)=O)cc34)oc12 | inconclusive: 15.8 µM [inhibitor, full curve, poor fit]
COc1ccc(-n2c(COc3ccc4ccccc4c3)nnc2SCC(=O)NCc2ccco2)cc1 | inconclusive: 25.1 µM [inhibitor, full curve]

Structure (SMILES) | Potency
Cc1cccc(CN2C(=O)N/C(=C/c3cc(C)n(-c4cc(C)ccn4)c3C)C2=O)c1 | inconclusive: 50.1 µM [inhibitor, partial curve]
COc1ccccc1C(=O)NCCC(=O)N(C)CC(=O)Nc1ccccc1Br | inactive
Cn1nc(-c2ccccc2)cc1NC(=O)Nc1ccc(C(C)(C)C)cc1 | inconclusive: 79.4 µM [inhibitor, partial curve]
Cc1cccc(Oc2sc(C(=O)c3ccccc3)c(N)c2C#N)c1C | inconclusive: 14.1 µM [inhibitor, full curve, poor fit]
Cc1ccc(O)c(-c2n[nH]c3c2C(c2ccc(F)cc2)N(Cc2ccco2)C3=O)c1 (stereo not drawn) | inconclusive: 39.8 µM [inhibitor, full curve]
Cc1nc2ccc(NC3=NCCCCC3)cc2s1 | active: 3.55 µM
O=C(CSc1nnc(-c2cccnc2)n1Cc1ccco1)N1c2ccccc2Sc2ccccc21 | inconclusive: 50.1 µM [inhibitor, partial curve]
CSCCC(NC(=O)c1ccccc1)C(=O)N1CCN(C(C)=O)CC1 (stereo not drawn) | inactive
COc1cc(Br)cc(-c2nc3c(c(=O)[nH]c(=O)n3Cc3ccccc3)n2C)c1O | inconclusive: 50.1 µM [inhibitor, partial curve, poor fit]
COc1ccc(Nc2ncc(C#N)c(N)n2)c(OC)c1 | inconclusive: 89.1 µM [inhibitor, single point]
Cc1noc(C)c1C(=O)OCC(=O)Nc1ccc(C(N)=O)cc1 | inactive
CC(=O)Nc1ccc(C(=O)OCC(=O)NCc2ccc3c(c2)OCO3)cc1 | inactive
COc1ccc(C(C)(C)C)cc1NC(=O)COC(=O)c1ccc([N+](=O)[O-])o1 | active: 20 µM
CCSc1ccc2c(c1)N(CCCN1CCN(C)CC1)c1ccccc1S2 | active: 39.8 µM
CCc1cc(OCCCCNCc2ccccc2)ccc1Cl | active: 6.31 µM
Cc1occc(=O)c1OC(=O)Nc1ccccc1 | active: 20 µM
Cc1ccc(-c2cc(C(=O)N3CCN(c4ncccn4)CC3)c3cc(Br)ccc3n2)o1 | active: 35.5 µM
CCOC(=O)CSc1nc2c(sc(=S)n2-c2ccc(CC)cc2)c(=O)[nH]1 | inactive
COc1cc(OC)cc(Oc2ccc(S(=O)(=O)N3CCCCC3)cc2[N+](=O)[O-])c1 | inconclusive: 31.6 µM [inhibitor, partial curve]
CCOC(=O)c1c(/N=C/N(C)C)sc(/C=N/Nc2ccccc2)c1-c1ccccc1 | inconclusive: 14.1 µM [inhibitor, partial curve]
Cc1ccc(S(=O)(=O)N2CCC(C(=O)NC3CCCC3)CC2)cc1Cl | active: 100 µM
Clc1ccc(CN2CCc3c([nH]c4ccccc34)C2)cc1Cl | active: 15.8 µM
O=c1cc(O)c(-c2ccccc2Cl)c(Cl)[nH]1 | inactive
N#Cc1ccccc1Cn1c(-c2cscn2)nc2ccccc21 | inactive
